PubChem BioAssay AID686978 (National Center for Advancing Translational Sciences (NCATS), 2013)
Values joined by “and” are separate entries in the source; they are usually repeats but may differ in a detail not shown here. Equal values may be shown once. Out of some 420,000 compounds screened, about 64,000 (15%) were called active. The inconclusive results got no clear call from the source; some entries with a clear call stand among them for comparison. Calls follow the shape of the dose curve; as a rule, active = well fitted inhibition curve with a large enough effect; inconclusive = small, poorly fitted or top-dose-only effect; inactive = flat fitted curve, though single readings scatter. Potencies of inconclusive entries are doubtful fits and often do not repeat.
% is scaled to controls: 0 for no effect and ±100 for the full control effect; potency is read from the fitted curve at half-maximal effect; tags tell the direction and shape of the fitted curve.

Experiment: qHTS for Inhibitors of human tyrosyl-DNA phosphodiesterase 1 (TDP1): qHTS in cells in absence of CPT; also: nearly all actives have a fitted effect of over 55% in size
Settings: DT40 Tdp1-/- hTDP1 cells, no CPT, ATP luminescence, 48 h; activity change, negative = growth inhibition: at 46.2 µM (top of the series) unless noted
Summary of the method: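 Chicken DT40 Tdp1-/- cells stably complemented with human TDP1 were seeded at 400 cells/well with DMSO in place of 20 nM camptothecin. After compound pinning, cells grew at least 48 hr at 37 °C; viability read by CellTiter-Glo luminescence.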
In the case of `O=C(CSc1nnc(-c2ccco2)n1Cc1ccco1)Nc1ccccc1`, the “activity change, negative = growth inhibition” value is reported as inactive: -27.3%.
With `CC(C)c1ccc(OCCCCCN2CCOCC2)cc1` the Potency was inconclusive: 16.4 µM [inhibitor, single point].
With `O=C(COc1ccc(Br)cc1)Nc1ccc(-c2nnc(-c3ccco3)o2)cc1` the Potency was inconclusive: 25.9 µM [inhibitor, single point].
For `Cc1ccc(NC(=O)c2ccc(S(=O)(=O)NCc3ccco3)cc2)nc1`, the Potency was inconclusive: 23.1 µM [inhibitor, single point].
In the case of `O=C(/C=C/c1ccco1)c1ccccc1O`, the “activity change, negative = growth inhibition” value is reported as inactive: -26.7%.
For `COc1ccc(C(=O)Nc2ccc3ccccc3n2)cc1OC`, the Potency was inconclusive: 18.4 µM [inhibitor, single point].
With `COc1ccc([C@@H]2[C@@H]3C(=O)N(C(C)(C)C)C(=O)[C@@H]3[C@]3(CC(C)C)C(=O)N(c4ccc(C(F)(F)F)cc4)C(=O)N23)cc1` the Potency was inconclusive: 10.3 µM [inhibitor, partial curve].
With `CCOC(=O)C1CCN(C(=O)COc2ccc(C(=O)c3ccccc3)cc2)CC1` the Potency was inconclusive: 23.1 µM [inhibitor, single point].
In the case of `O=C1CSCc2nc3ccccc3n21`, the “activity change, negative = growth inhibition” value is reported as inactive: -17.4%.
For `O=C1CC(c2cc([N+](=O)[O-])ccc2Cl)c2c(ccc3ccccc23)N1` (centres undefined), the Potency was active: 14.6 µM.
For `Fc1cccc(F)c1-n1c(CN2CCCCC2)csc1=S`, the Potency was inconclusive: 29.1 µM [inhibitor, single point].
With `CCc1ccccc1Nc1nc(N)nc(CSCC(=O)c2cc(C)n(C)c2C)n1` the Potency was inconclusive: 23.1 µM [inhibitor, single point].
For `CCC(=O)Nc1nc(CC(=O)Nc2ccccc2)cs1`, the “activity change, negative = growth inhibition” value was inactive: -21.6%.
With `COc1ccccc1C(=O)N1c2ccccc2Sc2ccccc21` the Potency was active: 5.8 µM.
With `O=C1NC(=S)/C(=C\c2ccc(-c3ccccc3Cl)o2)S1` the Potency was active: 13 µM.
With `Cn1c(/C=C/N(Cc2ccccc2)c2ccccc2)c([N+](=O)[O-])c(=O)n(C)c1=O` the Potency was inconclusive: 18.4 µM [inhibitor, single point].
For `COc1ccc(OC)c(CN2CCN(C(=O)CNC(=O)c3ccc(C(C)(C)C)cc3)CC2)c1`, the Potency was inconclusive: 18.4 µM [inhibitor, single point].
In the case of `O=C1NC(c2ccc(O)cc2)Nc2ccccc21` (centres undefined), the Potency is reported as inconclusive: 18.4 µM [inhibitor, single point].
For `COc1ccc2c(c1)c1c(c(=O)n(-c3cccc(C)c3)c(=O)n1Cc1cccc(Cl)c1)n2C`, the Potency was active: 5.8 µM.
For `CCCCOC(=O)C1=C(C)NC(=O)NC1c1ccc([N+](=O)[O-])s1` (centres undefined), the activity change, negative = growth inhibition was inconclusive: -34% [inhibitor].
In the case of `O=C1Nc2cc(C(=O)NCCCN3CCOCC3)ccc2S/C1=C/c1ccccc1F`, the Potency is reported as inconclusive: 11.6 µM [inhibitor, partial curve].
In the case of `COc1cc(C#Cc2c(-c3cncn3C)n(C)c3ccc(-c4ccc(CN5CCOCC5)cc4)cc23)cc(OC)c1`, the Potency is reported as active: 8.2 µM.
For `O=C(NCC1(N2CCCCC2)CCCC1)c1cnn(-c2nccc(-c3cccs3)n2)c1C1CC1`, the “activity change, negative = growth inhibition” value was inactive: 0.761%.
For `C[C@@H]1NC(=O)[C@@H](N)CNC(=O)[C@H](C2CCNC(N)=N2)NC(=O)/C(=C/NC(N)=O)NC(=O)[C@H](CNC(=O)C[C@@H](N)CCCN)NC1=O` (some centres undefined), the Potency was “inactive”.
With `CSc1ccccc1NC(=O)CSc1n[nH]c(C)c1[N+](=O)[O-]` the Potency was inconclusive: 11.6 µM [inhibitor, partial curve].
For `CCn1c(=O)c(C(=O)Nc2ccccc2)c(O)c2ccccc21`, the Potency was inconclusive: 29.1 µM [inhibitor, single point].
With `NC(=O)NCCc1ccccc1` the “activity change, negative = growth inhibition” value was inactive: -2.47%.
With `CCC(=O)N1c2ccc(S(=O)(=O)N3CCN(C)CC3)cc2CC1C` (centres undefined) the “activity change, negative = growth inhibition” value was inactive: -9.4%.
In the case of `CC(C)(C)n1nnnc1C(c1cccs1)N(Cc1cccnc1)Cc1ccco1` (centres undefined), the Potency is reported as inconclusive: 29.1 µM [inhibitor, single point].
For `CCN(CC(=O)Nc1ccc(OC)cc1)C(=O)Cc1ccc(OC)c(S(=O)(=O)N2CCOCC2)c1`, the “activity change, negative = growth inhibition” value was inactive: -17.3%.
For `CCCS(=O)(=O)c1c(S(=O)(=O)CCC)c2c(N)cccn2c1C(=O)c1ccc(OC)cc1`, the “activity change, negative = growth inhibition” value was inactive: -17.5%.
With `O=S(=O)(c1ccc2nc(N3CCN(c4ccccc4F)CC3)ccc2c1)N1CCCCC1` the Potency was “inactive and inconclusive: 16.4 µM [inhibitor, partial curve]”.
With `COc1ccc(NS(=O)(=O)c2cccc(C(=O)N/N=C/c3ccccn3)c2)cc1` the “activity change, negative = growth inhibition” value was inactive: 2.64%.
For `Cc1ccc(C(=O)C2COC(=O)C2)cc1` (centres undefined), the Potency was inconclusive: 35.5 µM [inhibitor, single point].
With `Cc1ccc(-c2csc(N3CCN(c4cc5c(cc4Cl)nc(C)n5CCN4CCCCC4)CC3)n2)cc1` the Potency was inconclusive: 25.9 µM [inhibitor, single point].
For `CCN(CC)S(=O)(=O)c1ccc(N2CCN(S(=O)(=O)c3ccc4c(c3)OCCO4)CC2)nc1`, the Potency was inconclusive: 29.1 µM [inhibitor, single point].
For `CCOC(=O)c1c(C)[nH]c(C)c1S(=O)(=O)N1c2ccccc2CC1C` (centres undefined), the Potency was inconclusive: 20.6 µM [inhibitor, single point].
With `Cc1ccc(-c2c[n+](CC(=O)Nc3ccccc3C)c3n2CCC3)cc1` the Potency was inconclusive: 18.4 µM [inhibitor, single point].
With `Cc1ccc(-c2ccc(CN3C(C(C)C)C(=O)N(Cc4cn(CCC5OCCO5)nn4)CCS3(=O)=O)cc2)c(C)c1` (centres undefined) the Potency was active: 18.4 µM.
With `c1ccc2c(c1)N1CCCN=C1N2CCN1CCCCC1` the “activity change, negative = growth inhibition” value was inactive: 6.48%.
For `Cc1nnc(SCC(=O)NCC(=O)Nc2ccc(F)c(F)c2F)n1Cc1ccccc1`, the “activity change, negative = growth inhibition” value was inactive: 9.65%.
With `Cc1sc(NC(=O)C2CCCCC2C(=O)O)c(C(N)=O)c1C` (centres undefined) the activity change, negative = growth inhibition was inconclusive: -37.3% [inhibitor].
In the case of `FC(F)(F)c1ccccc1/C=N/n1c(C2CCCCC2)n[nH]c1=S`, the “activity change, negative = growth inhibition” value is reported as inactive: -20.8%.
With `Cc1ccc(OCC(=O)Nn2c(C)nc3ccccc3c2=O)c(C(C)C)c1` the Potency was inconclusive: 14.6 µM [inhibitor, partial curve, poor fit].
For `CC1CN(C(C)C(=O)NNC(=O)c2ccc(F)cc2)CC(C)O1` (centres undefined), the “activity change, negative = growth inhibition” value was inactive: -12.8%.
In the case of `Cc1cc(C)c2cc(CN(Cc3nnnn3Cc3ccc(F)cc3)C3CCCC3)c(=O)[nH]c2c1`, the Potency is reported as inconclusive: 29.1 µM [inhibitor, single point].
In the case of `Cc1nc(-n2nc(C)c(CCC(C)C)c2C)sc1C(=O)Nc1ccc(Cl)cc1`, the Potency is reported as inconclusive: 18.4 µM [inhibitor, single point].
For `Cc1cccc(N(C(=O)c2snc(C(N)=O)c2N)C(C(=O)NCC2CCCO2)c2c[nH]c3ccccc23)c1` (centres undefined), the Potency was inconclusive: 29.1 µM [inhibitor, partial curve, poor fit].
With `CCCCOC(=O)Cn1c(=N)n(CCC)c2ccccc21` the “activity change, negative = growth inhibition” value was inactive: -9.05%.
In the case of `COc1ccccc1C(=O)N1CCN(c2cccc(C(F)(F)F)c2)CC1`, the Potency is reported as active: 11.6 µM.
With `Cc1ccc(OCCSc2ncnc3nc[nH]c23)cc1` the Potency was inconclusive: 10.3 µM [inhibitor, partial curve].
For `O=C(C[n+]1cc(Br)cc2ccccc21)c1ccc(Cl)cc1`, the Potency was active: 18.4 µM.
For `Cc1nc(N=Nc2ccc(O)cc2)n[nH]1`, the Potency was inconclusive: 23.1 µM [inhibitor, partial curve].
For `COc1ccc(Cl)cc1NC(=O)Nc1ccccc1SC`, the activity change, negative = growth inhibition was inconclusive: -30.4% [inhibitor].
With `Cc1ccc(C(O)c2ncc(-c3ccc4ccccc4c3)[nH]2)cc1` (centres undefined) the Potency was inconclusive: 13 µM [inhibitor, partial curve].
In the case of `O=C(O)/C=C(\CC(=O)O)C(=O)O`, the Potency is reported as “inactive”.
For `Cn1c(=O)c2sccc2n2c(CCCC(=O)N3CCN(c4ccccn4)CC3)nnc12`, the “activity change, negative = growth inhibition” value was inactive: -6.5%.
With `O=C(Cc1ccccc1[N+](=O)[O-])NCc1ccc(Cl)cc1` the “activity change, negative = growth inhibition” value was inactive: -5.07%.
In the case of `N#Cc1ccc(-c2ccco2)nc1SCc1ccccc1`, the Potency is reported as inconclusive: 20.6 µM [inhibitor, single point].
With `COc1ccc(-c2cc(=O)oc3cc(OCC(C)=O)ccc23)cc1` the “activity change, negative = growth inhibition” value was inactive: -24.1%.
In the case of `CC(C)c1ccc(CC(=O)N2CCC2(C)C(=O)Nc2cccc(C#N)c2)cc1` (centres undefined), the Potency is reported as active: 16.4 µM.
For `CCCNS(=O)(=O)c1ccc(NC(=O)c2cccnc2)cc1`, the “activity change, negative = growth inhibition” value was inactive: -13.8%.
In the case of `CCc1cccc(NC(=O)CSc2nnc(Cc3ccc(OC)cc3)c(=O)[nH]2)c1`, the “activity change, negative = growth inhibition” value is reported as inactive: -8.98%.
With `CC1=CC(C)(C)NC(=S)N1c1ccc(C)cc1C` the Potency was inconclusive: 23.1 µM [inhibitor, single point].
With `O=C1NC(c2ccccc2)=C(c2nc3ccccc3s2)C(c2ccccc2)N1` (centres undefined) the Potency was inconclusive: 29.1 µM [inhibitor, single point].
In the case of `CNC[C@@H](Cc1ccccc1)NC[C@@H](CC1CCCCC1)NCCCc1ccccc1`, the Potency is reported as active: 9.2 µM.
With `Cc1cccc(Cn2cnc3c(nnn3Cc3ccc(Cl)cc3)c2=O)c1` the Potency was active: 15.8 µM.
For `CN(C(=O)c1cc2c(s1)-c1ccccc1S(=O)(=O)C2)c1ccccc1`, the Potency was active: 23.1 µM.
In the case of `NC(=S)NNc1ccnc2cc(Cl)ccc12`, the Potency is reported as inconclusive: 23.1 µM [inhibitor, single point].
For `Clc1cc(Cl)c(OCC#CI)cc1Cl`, the Potency was active: 1.88 µM.
With `CC(C)C(Sc1nc(-c2ccccc2)cc(-c2ccccc2)c1C#N)C(=O)O` (centres undefined) the Potency was inconclusive: 29.1 µM [inhibitor, single point].
With `Cc1nn(Cc2c(Cl)cccc2Cl)c(C)c1NC(=O)/C=C/c1cnn(C)c1C` the activity change, negative = growth inhibition was inconclusive: -34.6% [inhibitor].
In the case of `Cc1cccc(-c2nc(CN3CCCC(C(=O)NC4CCCC4)C3)c(C)o2)c1` (centres undefined), the Potency is reported as active: 11.6 µM.
With `CC(=O)c1cccc(NS(=O)(=O)c2ccc3[nH]c4c(c3c2)CCCCC4)c1` the Potency was active: 16.4 µM.
